Measured values taken from PubChem BioAssay AID1476 (National Center for Advancing Translational Sciences (NCATS), 2009).
The campaign covered roughly 200,000 compounds. About 4,500 (2.2%) were called active. Inconclusive means that the source gave no clear call. Such entries were picked first, then a sample of the others. The call rests on the fitted dose curve; in most records, active means well fitted inhibition curve with a large enough effect; inconclusive means small, poorly fitted or top-dose-only effect, or effect the other way; inactive means flat fitted curve, though single readings scatter. Where the call is inconclusive, the potency comes from a doubtful curve fit.

target: Cruzipain (Trypanosoma cruzi) (UniProt P25779); assay: qHTS Assay for Promiscuous and Specific Inhibitors of Cruzain (without detergent); conditions: purified cruzain, Z-FR-AMC fluorescence, no detergent; further: nearly all actives have a fitted effect of over 40% in size;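 on max response, negative = inhibition: plate controls were enzyme without inhibitor for no effect and buffer without enzyme for full effect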
Method in brief: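 Purified cruzain at 1.5 nM, pre-incubated 15 min with compound at room temperature in 100 mM sodium acetate pH 5.5, 5 mM DTT, 0.00005% Triton X-100. Reaction started with 2 uM Z-FR-AMC; AMC fluorescence increase over 60 s gives rate.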
Potency means the concentration at half of the fitted maximal effect; tags describe the fitted curve by direction and shape.

Sequence of UniProt P25779 (P25779 whole entry, looked up): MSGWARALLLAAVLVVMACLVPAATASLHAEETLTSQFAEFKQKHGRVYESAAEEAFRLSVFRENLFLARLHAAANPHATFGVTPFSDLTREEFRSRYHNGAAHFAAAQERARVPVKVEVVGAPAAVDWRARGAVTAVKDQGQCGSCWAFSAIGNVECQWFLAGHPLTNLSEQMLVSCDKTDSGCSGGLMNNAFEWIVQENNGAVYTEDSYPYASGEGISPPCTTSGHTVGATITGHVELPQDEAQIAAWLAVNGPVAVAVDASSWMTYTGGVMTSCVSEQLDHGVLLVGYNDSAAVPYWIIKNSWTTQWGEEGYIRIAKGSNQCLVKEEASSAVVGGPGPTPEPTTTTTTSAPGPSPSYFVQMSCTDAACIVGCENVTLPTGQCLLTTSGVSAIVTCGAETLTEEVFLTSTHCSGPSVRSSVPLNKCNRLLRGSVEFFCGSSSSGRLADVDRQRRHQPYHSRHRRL

Row | SMILES | max response, negative = inhibition | Potency
1 | C[C@@H]1[C@@H](C)N1C[C@H](O)Cn1ccnc1[N+](=O)[O-] (stereo partly drawn) | inactive: -1.3% | –
2 | Cc1cc(C)cc(OCC(=O)N(Cc2ccc(Cl)cc2)C2CCS(=O)(=O)C2)c1 (stereo not drawn) | – | inconclusive: 31.6 µM [activator, single point]
3 | C/C(=N\Nc1cc(Cl)nc(C)n1)c1ccc(Cl)c(Cl)c1 | – | inconclusive: 39.8 µM [activator, single point]
4 | O=C(N/N=C/c1ccccc1)c1c(O)c2ccccc2[nH]c1=O | – | inconclusive: 31.6 µM [inhibitor, single point]
5 | Cc1ccc(C)c(N2CCN(c3nc4ccccc4c(=O)n3Cc3ccccc3)CC2)c1 | – | inconclusive: 39.8 µM [inhibitor, single point]
6 | Cc1cc(C)c2c(c1)cc(C)c1nnc(SCC(=O)Nc3ccccc3N3CCOCC3)n12 | – | inconclusive: 39.8 µM [activator, single point]
7 | Cc1ccc(CN(CC(=O)NC2CCCC2)C(=O)CSc2nnc(COc3ccccc3)o2)cc1 | – | inconclusive: 20 µM [inhibitor, single point]
8 | Cc1nc(-c2ccc(F)cc2)sc1CCNC(=O)c1ccc(OC(C)C)cc1 | – | inconclusive: 39.8 µM [activator, single point]
9 | Cc1nc2ccccc2cc1C[N+]12CN3CN(CN(C3)C1)C2 | inactive: -7.75% | –
10 | COc1ccc(CCNC(=O)c2ccc(Cn3c(=O)c4ccccc4n(Cc4ccc(F)cc4Cl)c3=O)cc2)cc1OC | inactive: 0.0938% | –
11 | Cc1ccc(S(=O)(=O)CCC(=O)NCCN2C(=O)S/C(=C/c3ccc(F)cc3)C2=O)cc1 | – | inconclusive: 31.6 µM [activator, single point]
12 | Cc1[nH]c(=O)[nH]c(=O)c1CSc1nnc([C@@H](NC(=O)OC(C)(C)C)C(C)C)o1 | inactive: 0.0414% | –
13 | Cc1ccc(-c2nnn(CC(=O)N(CC(=O)NCC3CCCO3)c3ccc(F)c(Cl)c3)n2)o1 (stereo not drawn) | – | inconclusive: 39.8 µM [activator, single point]
14 | CCn1c2ccccc2c2nnc(SCC(=O)Nc3cc(C)on3)nc21 | – | inconclusive: 39.8 µM [inhibitor, single point]
15 | COc1cccc(-c2nn(C)c3sc(C(=O)NCc4ccc(C)o4)cc23)c1 | – | inconclusive: 31.6 µM [activator, single point]
16 | Cc1cc2cc(CNC(=O)c3ccc(S(=O)(=O)N4CCCCC4)cc3)ccc2n1C | – | inconclusive: 20 µM [inhibitor, partial curve, poor fit]
17 | O=C(NC1CCCC1)c1ccc(CS(=O)(=O)c2cccc(C(F)(F)F)c2)o1 | inactive: 14.3% | –
18 | CC1CCN(c2csc3ccc(F)cc3c2=O)CC1 | inactive: 1.84% | –
19 | Cc1ccc(-c2nnn(CC(=O)NCCC3=CCCCC3)n2)cc1 | – | inconclusive: 31.6 µM [inhibitor, single point]
20 | CCOc1ccccc1Nc1nc(-c2sc(NC(=O)c3ccco3)nc2C)cs1 | – | inconclusive: 31.6 µM [inhibitor, single point]
21 | Cc1ccccc1CNC(=O)C(=O)NCC(c1ccc2c(c1)OCO2)N1CCOCC1 (stereo not drawn) | inactive: -5.34% | –

Row | SMILES | max response, negative = inhibition | Potency
22 | COc1cc2c(=O)c(C(=O)c3ccc(F)cc3)cn(Cc3cccc(F)c3)c2cc1OC | – | inconclusive: 39.8 µM [activator, single point]
23 | CCN(CC)c1ccc(NC(=O)Cn2c3ncccc3c(=O)n2-c2ccccc2)c(C)c1 | inactive: -2.83% | –
24 | CC(C)(C)OC(=O)C1C(=O)CC(C)(O)C(C(=O)OC(C)(C)C)C1c1ccco1 (stereo not drawn) | – | inconclusive: 25.1 µM [activator, partial curve]
25 | COc1ccccc1CNc1ncnc2c1c(-c1ccccc1)cn2-c1ccc(Br)cc1 | – | active: 7.94 µM
26 | Cc1ccc(NC(=O)CSc2nc(N)c3c4c(sc3n2)CSC(C)(C)C4)cc1 | – | inconclusive: 31.6 µM [inhibitor, single point]
27 | COc1ccc(-c2nc3cnc(N4CCN(C)CC4)nc3n(Cc3ccc(F)cc3)c2=O)cc1 | inactive: 4.58% | –
28 | COC(=O)c1cc(S(=O)(=O)N2CCN(c3cc(Cl)ccc3C)CC2)c[nH]1 | – | inconclusive: 39.8 µM [activator, single point]
29 | O=S(=O)(O)c1cc(N=[N+]([O-])c2cc(S(=O)(=O)O)c3ccccc3c2)cc2ccccc12 | – | inconclusive: 3.98 µM [inhibitor, single point]
30 | CS(=O)(=O)CCC(C(=O)OCc1ccc(Cl)cc1)N1C(=O)c2ccccc2C1=O (stereo not drawn) | – | inconclusive: 39.8 µM [activator, single point]
31 | CCOc1ccc(-c2nc(C(N)=O)c3c(n2)n(-c2ccc4c(c2)OCO4)c(=O)n3CC)cc1 | inactive: -1.02% | –
32 | CCCCn1c(CNC(=O)C23CC4CC(CC(C4)C2)C3)nnc1SC(C)CC (stereo not drawn) | – | inconclusive: 20 µM [activator, partial curve]
33 | COc1cc(C(=O)N2CCC(NC(=O)C(Cc3ccc(C(C)C)cc3)NC(C)=O)CC2)cc(OC)c1OC (stereo not drawn) | – | inconclusive: 39.8 µM [activator, single point]
34 | CC(=O)Cc1nsc(NC(=O)c2ccc(-c3cccc(C(F)(F)F)c3)o2)n1 | inactive: 3.48% | –
35 | CC(C)c1nc2ccc(C(=O)NCCCN3CCN(c4ccccc4)CC3)cc2o1 | inactive: 17.1% | –
36 | O=C(CN1CCN(Cc2ccc(F)cc2Cl)C1=O)NCCc1ccc(Cl)cc1 | – | inconclusive: 25.1 µM [activator, single point]
37 | Cc1ccc(NC(=O)CSc2nc3c(cc2C#N)C(=O)CCC3)cc1S(=O)(=O)N(C)C | inactive: -17% | –
38 | COc1ccc(C2C(C(=O)N3CCC4(CC3)OCCO4)CC(=O)N2c2ccc(OC)cc2)cc1 (stereo not drawn) | – | inconclusive: 31.6 µM [activator, single point]
39 | Cc1ccc(S(=O)(=O)c2c(Nc3ccc(C)c(C)c3)sc(C(=O)c3ccc4c(c3)OCO4)c2N)cc1 | – | active: 2.51 µM
40 | Cc1c(CN(C)C(=O)c2cc(-c3ccccc3)nc3ccc(Br)cc23)cnn1C | – | inconclusive: 39.8 µM [activator, single point]
41 | Cc1ccccc1CNC(=O)c1ccc(NC(=O)N2CCCCc3ccccc32)cc1 | inactive: -9.89% | –
42 | COc1cc(CNCCSc2nnnn2C)ccc1OCc1ccccc1C | inactive: 1.92% | –

Row | SMILES | max response, negative = inhibition | Potency
43 | Cc1ccc(NC(=O)c2ccc(OC(=O)C(C)Oc3ccc(Cl)cc3C)cc2)cc1 (stereo not drawn) | – | active: 7.94 µM
44 | Cn1c(SCC(=O)NC2CCCCC2)nnc1-c1cc2cc(Cl)ccc2o1 | – | inconclusive: 31.6 µM [inhibitor, single point]
45 | Cc1csc2nc(-c3ccc(NS(=O)(=O)c4cccc(F)c4)cc3)cn12 | – | inconclusive: 39.8 µM [inhibitor, single point]
46 | CC[C@H](C)[C@H](N)C1=N[C@H](C(=O)N[C@@H](CC(C)C)C(=O)N[C@@H](CCC(=O)O)C(=O)N[C@@H](C(=O)N[C@H]2CCCCNC(=O)[C@@H](CC(N)=O)NC(=O)[C@@H](CC(=O)O)NC(=O)[C@@H](Cc3cnc[nH]3)NC(=O)[C@@H](Cc3ccccc3)NC(=O)[C@@H]([C@@H](C)CC)NC(=O)[C@@H](CCCN)NC2=O)[C@@H](C)CC)CS1 | – | inconclusive: 12.6 µM [activator, partial curve]
47 | Cc1ccccc1CN1c2ccccc2-c2nc(SCC(=O)c3ccc(Cl)cc3)ncc2S1(=O)=O | inactive: -14.8% | –
48 | Cc1csc2nc(-c3cccc(NS(C)(=O)=O)c3)cn12 | inactive: -5.96% | –
49 | CCc1ccccc1NC(=O)Cn1c(=O)n(Cc2ccccc2)c(=O)c2c(C)c(C(=O)N(C)C)sc21 | – | inconclusive: 15.8 µM [activator, partial curve]
50 | O=C(CSc1nc2c(c(=O)[nH]1)CCCC2)Nc1ccccc1C(F)(F)F | inactive: -1.9% | –
51 | COc1cc(NS(=O)(=O)c2ccc(N/C=C(\C#N)c3nc4cc(Cl)ccc4o3)cc2)nc(OC)n1 | – | inconclusive: 3.98 µM [activator, single point]
52 | CCn1cc(C(=O)NCc2ccc3c(c2)OCO3)c(=O)c2cc(S(=O)(=O)N(C)C)ccc21 | – | inconclusive: 39.8 µM [activator, single point]
53 | Cc1cccc(NC(=O)C23CCC(C)(C2Br)C3(C)C)c1 (stereo not drawn) | inactive: -13.2% | –
54 | O=C(NCCc1ccccc1)C(=O)Nc1nccs1 | – | inconclusive: 39.8 µM [inhibitor, single point]
55 | Cc1c(Cc2ccccc2)sc(/N=C/c2c(O)ccc3ccccc23)c1C(N)=O | inactive: -19.4% | –
56 | O=C(CSc1nc2c(c(=O)[nH]1)CCC2)Nc1cccc(Cl)c1 | inactive: -2.78% | –
57 | COc1ccc(S(=O)(=O)Nc2cccc(-c3ccc(N4CCCCCC4)nn3)c2)cc1F | inactive: -12.1% | –
58 | CNc1nc(C)c(C#N)c(-c2ccccc2)c1C(C)=O | inactive: -4.58% | –
59 | COc1ccc2c(c1)CC(C(=O)NCCCN1CCN(c3ccc(F)cc3)CC1)CO2 (stereo not drawn) | inactive: -7.84% | –
60 | O=C(N/N=C/c1cccs1)c1cc(-c2ccc3ccccc3c2)n[nH]1 | – | inconclusive: 25.1 µM [inhibitor, single point]
61 | Cc1ccc(SCC(=O)Nc2ccc(-c3nc4ccccc4[nH]3)cc2)cc1 | – | inconclusive: 39.8 µM [inhibitor, single point]
62 | COc1ccccc1CNC(=O)c1ccc(-c2nc(CN3CCc4ccccc43)c(C)o2)cc1 | – | inconclusive: 39.8 µM [inhibitor, single point]
63 | CCC(=O)N1CCc2cc(Br)cc(S(=O)(=O)N3CCCC(C(=O)N(C)c4ccc(Br)cc4)C3)c21 (stereo not drawn) | – | inconclusive: 25.1 µM [activator, partial curve]
